Laboratory results reported in paper PMC4336329 (PLoS ONE, 2015).
Screen size: about 310,000 compounds; about 14,000 (4.5%) showed an effect of 50% or more. The effect is printed as a negative number. The list shows a part of the results.

Biological target: human ether-à-go-go-related gene (hERG) potassium channel (human, UniProt Q12809)
Test: primary screen, population patch clamp on CHO cells stably expressing hERG
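Further: peak tail current of the secondary pulse compared with the same well before compound.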

human ether-à-go-go-related gene (hERG) potassium channel, sequence (Q12809 whole entry, looked up): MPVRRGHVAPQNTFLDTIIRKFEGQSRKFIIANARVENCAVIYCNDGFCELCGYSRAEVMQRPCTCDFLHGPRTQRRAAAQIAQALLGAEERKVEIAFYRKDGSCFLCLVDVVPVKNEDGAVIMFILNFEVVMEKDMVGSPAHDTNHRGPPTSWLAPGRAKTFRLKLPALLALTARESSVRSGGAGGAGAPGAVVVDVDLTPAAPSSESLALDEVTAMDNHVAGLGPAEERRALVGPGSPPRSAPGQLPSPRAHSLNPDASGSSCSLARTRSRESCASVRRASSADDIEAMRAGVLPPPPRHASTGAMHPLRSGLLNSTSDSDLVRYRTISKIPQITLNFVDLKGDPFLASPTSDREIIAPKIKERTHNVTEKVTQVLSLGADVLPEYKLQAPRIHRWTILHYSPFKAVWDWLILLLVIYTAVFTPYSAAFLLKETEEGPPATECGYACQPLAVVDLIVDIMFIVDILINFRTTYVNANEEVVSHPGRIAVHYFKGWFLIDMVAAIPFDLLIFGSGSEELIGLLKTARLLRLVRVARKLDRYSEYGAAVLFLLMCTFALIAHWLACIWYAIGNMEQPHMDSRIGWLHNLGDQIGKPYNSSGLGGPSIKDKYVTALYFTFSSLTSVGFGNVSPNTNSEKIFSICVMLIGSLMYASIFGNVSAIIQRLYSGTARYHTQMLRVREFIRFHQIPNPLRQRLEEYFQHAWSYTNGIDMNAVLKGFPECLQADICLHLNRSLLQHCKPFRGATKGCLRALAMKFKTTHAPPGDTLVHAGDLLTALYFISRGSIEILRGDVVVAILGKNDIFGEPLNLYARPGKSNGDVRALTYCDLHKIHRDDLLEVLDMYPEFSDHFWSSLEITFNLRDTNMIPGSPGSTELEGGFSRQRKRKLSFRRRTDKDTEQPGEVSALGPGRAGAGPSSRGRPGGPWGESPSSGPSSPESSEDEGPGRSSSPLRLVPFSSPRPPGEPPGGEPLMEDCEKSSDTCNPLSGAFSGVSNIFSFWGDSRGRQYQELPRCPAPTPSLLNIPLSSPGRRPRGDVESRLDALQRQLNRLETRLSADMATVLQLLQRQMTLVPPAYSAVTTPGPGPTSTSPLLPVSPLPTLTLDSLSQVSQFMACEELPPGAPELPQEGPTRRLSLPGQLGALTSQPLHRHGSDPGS

Compound | hERG current change (%, negative = inhibition) at 10uM [%]
Cn1c2ccccc2c2cc(C(=O)NNC(=O)CCl)sc21 | -25.5
O=C(CCC(=O)N(CC(=O)NC1CCCC1)Cc1ccccc1)Nc1nccs1 | 13.6
N#Cc1c(N)nc2c(c1-c1cccs1)CCCC2 | 8.17
CCc1ccc(NC(=O)CCC(=O)c2ccccc2)cc1 | 8.35
c1ccc(C2CC3CC(c4ccccc4)N2O3)cc1 (stereo not drawn) | 13.2
C/C(CC(=O)Nc1ccc2c(c1)OCCO2)=N\NC(=O)COc1ccc(Cl)c(C)c1 | -9.98
O=C(NC12CC3CC(CC(C3)C1)C2)N(Cc1ccccc1)Cc1ccncc1 | -49.7
CC(=O)c1cccc(NC(=O)CC(C)n2ccnc2)c1 (stereo not drawn) | 19.2
O=C1CCCN1c1ccc(S(=O)(=O)NCCOc2ccccc2)cc1 | 3.7
CCOC(=O)c1ccc(NC(=O)c2ccc(CN3CCOCC3)cc2)cc1 | 1.26
O=C(CSc1n[nH]c(-c2ccccc2)n1)Nc1ccc(Br)cn1 | 5.45
COC(=O)c1ccc(CSc2nnc3sc4ccccc4n23)o1 | -7.51
Cn1nc(C(=O)Nc2ccc(S(=O)(=O)N3CCCCC3)cc2)c2ccccc2c1=O | 2.33
Cl.NCCCCCC(=O)N/N=C/c1ccc2nccnc2c1 | 13.6
N#CCCN(Cc1cccnc1)C(=S)NCc1ccco1 | 30.7
O=C(c1cc(-c2ccccc2)nn1-c1ccccc1)N1CCN(S(=O)(=O)c2c(F)cccc2F)CC1 | -32.1
O=C(CSc1n[nH]c(-c2cccnc2)n1)Nc1ccc(Cl)cc1 | 3.82
CCc1ccc(NC(=O)C(C)OC(=O)c2cccc(S(=O)(=O)N3CCc4ccccc4C3)c2)cc1 (stereo not drawn) | -6.6
COc1cccc2cc(C(=O)NCc3ccccc3)c(=N)oc12 | -1.51
Cc1nnc(SCc2ccc(Cl)cc2)n1CC1CCCO1 (stereo not drawn) | -3.26
CC1CCCN(c2oc(-c3cccc4ccccc34)nc2C#N)C1 (stereo not drawn) | 8.15
CC(C)c1ccc(OCC(=O)N2CCCCCC2)c(Br)c1 | -20.7

Compound | hERG current change (%, negative = inhibition) at 10uM [%]
COc1cc(NC(=O)COC(=O)CNC(=O)c2ccc(Cl)cc2)c(C)cc1[N+](=O)[O-] | -14.1
Cc1nnc(SCC(=O)Nc2sc3c(c2C#N)CCCCC3)n1N | -2.18
O=C(NC12CC3CC(CC(C3)C1)C2)c1cccc(OC(F)F)c1 | -55.2
COCc1cc(C)nc(SCC(=O)Nc2ccc(N3CCOCC3)cc2)c1C#N | 3.04
COc1ccc(C(=O)NC2CC3CCCC(C2)N3CC(C)C)cc1 (stereo not drawn) | -34.7
CCOC(=O)COc1ccc(S(=O)(=O)N2CCc3ccccc3C2)cc1 | -3.43
CC1Cc2ccccc2N1C(=O)COC(=O)c1ccc(Br)o1 (stereo not drawn) | 8.05
Cc1ccc2[nH]c(=O)c(COC(=O)c3cccs3)cc2c1 | -1.59
O=C1CSC2(C(=O)N3CCCc4cccc2c43)N1c1cccc(C(F)(F)F)c1 (stereo not drawn) | -23.6
CCCn1nc(C(=O)NCCc2ccc(S(N)(=O)=O)cc2)c2ccccc2c1=O | -15.8
CC1CCCCC1NC(=O)CSc1nnc(-c2ccncc2)n1CCCN(C)C.O=C(O)C(=O)O (stereo not drawn) | 3.09
CC(C)CNC(=O)c1ccc(NC(=O)c2cccs2)cc1 | -2.04
COc1ccc(C)cc1N(CC(=O)Nc1ccc2c(c1)OCCO2)S(C)(=O)=O | 11.6
COCCNC(=O)Cn1nc(-c2ccc(C)cc2)c2ccccc2c1=O | 3.46
CCOc1ccccc1N(CC(=O)Nc1ccccc1C(=O)OC)S(C)(=O)=O | 12
COc1cccc(CNCC(=O)N2C(C)CCCC2C)c1.O=C(O)C(=O)O (stereo not drawn) | -3.1
Cc1ccc(C(=O)N/C(=C\c2cn(C)c3ccccc23)C(=O)N2CCOCC2)cc1 | -6.6
Cc1ccc(C(=O)NC2CCN(S(=O)(=O)c3ccc(F)cc3)CC2)cc1 | 11.6
Cc1ccc(N(CC(=O)NC(C)C)C(=O)CCC(=O)Nc2ccccn2)cc1 | 21
COc1ccc(NC(=O)NCCCN2CCC(Cc3ccccc3)CC2)cc1 | -77.5
Cc1ccc(Oc2cc(C)nc(-c3ccccc3O)n2)cc1 | 0.258
CC(O)CC(C)O (stereo not drawn) | 24.9

Compound | hERG current change (%, negative = inhibition) at 10uM [%]
CC1(C)Oc2ccc3ccc(=O)oc3c2/C(=C/NCCN/C=C2\C(=O)C(C)(C)Oc3ccc4ccc(=O)oc4c32)C1=O | -7.38
CC(=O)c1ccc(N2CCN(S(=O)(=O)c3cc4c(cc3C)NC(=O)CO4)CC2)cc1 | 8.4
Cc1noc(C)c1C(=O)OC(C)C(=O)N(C)c1ccccc1 (stereo not drawn) | -4.55
O=C(CS(=O)(=O)c1ccccc1)c1cc2cc(F)ccc2oc1=O | 0.672
COC(=O)c1c(NC(C)=O)sc(C(=O)Nc2ccccc2F)c1C | 24.5
CCOP(=O)(c1ccccc1)c1nc(-c2ccc(F)cc2)oc1N1CCCCC1 (stereo not drawn) | -56.6
COc1ccc(NC(=S)NC2CC3CCC(C2)N3Cc2ccco2)cc1 (stereo not drawn) | -30.1
N#Cc1c(-c2ccccc2)ccnc1Oc1ccccc1 | 0.00568
CC(C)N(C(=O)Cc1ccccc1[N+](=O)[O-])C(C)C | 13.5
O=C(Cn1c(=O)oc2ccccc21)Nc1ccc(S(=O)(=O)N2CCCCC2)cc1 | -6.33
CC1(C)Cc2ccccc2C(NN=C2CCCC2)=N1 | -21.2
Cc1ccc(NC(=O)c2sc3ncn(CC(=O)N4CCOCC4)c(=O)c3c2C)c(Br)c1 | 3.31
Cc1cnc(NC(=O)c2ccccn2)s1 | 12.4
Cc1ccc(N2C(=O)NC(=O)C3(Cc4ccccc4N4CCN(c5ccccc5)CC43)C2=O)cc1 (stereo not drawn) | -12.1
COc1ccc(C(=O)NC2CCCc3ccccc32)cc1S(=O)(=O)N1CCOCC1 (stereo not drawn) | 2.93
COc1ccc(C2C(C(=O)c3cccs3)=C(O)C(=O)N2Cc2cccnc2)cc1OC (stereo not drawn) | 5.03
CC(C)CCNC(=O)c1ccc2c(c1)N(Cc1ccccc1)C(=O)CS2=O (stereo not drawn) | -6.95
CC(=O)N1CCc2cc(S(=O)(=O)CCC(=O)Nc3c(C)n(C)n(-c4ccccc4)c3=O)ccc21 | -4.16
COC(=O)c1cc(NC(=O)/C=C/c2ccccc2)ccc1O | -0.657
CCC(CO)NCC(O)COCc1ccc2c(c1)OCO2 (stereo not drawn) | 10.1
Cc1ccc(C(c2nnnn2C2CCCC2)N2c3ccccc3CC2C)cc1.Cl (stereo not drawn) | 18.5
CCN(CC(=O)NCc1cccs1)S(=O)(=O)c1cccc(C(C)=O)c1 | 0.039

Compound | hERG current change (%, negative = inhibition) at 10uM [%]
Cc1ccc(Cn2ccc(NC(=O)C3C4CCC(C4)C3C(=O)O)n2)cc1 (stereo not drawn) | 7.82
CC(=O)Nc1nc2ccccc2n1Cc1ccc(Cl)cc1 | -15.4
COc1nn(CC(=O)N2N=C(C(F)F)CC2(O)C(F)F)cc1[N+](=O)[O-] (stereo not drawn) | -5.04
O=c1c(Cl)c(O)c2cccc3c4ccccc4n1c23 | 20.5
COc1cc(OC)cc(C(=O)Nc2ccc([N+](=O)[O-])cn2)c1 | 12.5
COC(=O)c1cc(S(=O)(=O)NCCN2CCN(c3ccccc3F)CC2)c[nH]1 | 6.4
COc1ccccc1NC(=O)Nc1ccnn1Cc1cccs1 | -7.22
N/C(=N\O)c1ccc(Oc2ccccc2Cl)c([N+](=O)[O-])c1 | -9.72
CCOC(=O)CCCNS(=O)(=O)c1c(C)ccc2nsnc12 | -10.6
N#Cc1c(Cl)nc(-c2cccnc2)nc1-c1ccccc1 | 21.7
CCn1c2ccccc2c2cc(NC(=O)C(C)OC(=O)c3ccc(NC(=O)CC#N)cc3)ccc21 (stereo not drawn) | 15.8
CC(=O)Oc1cc2c(C(=O)NCCN3CCOCC3)c(C)oc2c2ccccc12 | -24.7
O=c1c2ccccc2nc(-c2ccco2)n1CCCn1ccnc1 | -53.9
NC(=O)CCn1ccc2ccccc21 | 6.6
CCCCC(CC)C(=O)Nc1ccc(C)c(O)c1 (stereo not drawn) | 37.3
Cc1ccn2c(NCc3ccc4c(c3)OCO4)c(-c3ccc(O)cc3)nc2c1 | -11.6
O=C(CCn1c(=S)oc2ccccc21)Nc1ccccc1F | 2.88
CN(CC(=O)Nc1ccc(Cl)c(C(F)(F)F)c1)C(=O)Cn1cc([N+](=O)[O-])ccc1=O | -46.2
CC(=O)Nc1ccc(S(=O)(=O)N(C)CC(=O)OCC(=O)NC(C)C23CC4CC(CC(C4)C2)C3)cc1.CN(C)C=O (stereo not drawn) | 2.32
Cc1cc(-c2nnc(SCC(=O)N3C(C)CCCC3C)o2)no1 (stereo not drawn) | 13.7
CC(C)(C)OC(=O)N1CCC[C@H]1C(=O)Nc1ccc(S(=O)(=O)C(F)F)cc1 | 6.56
